Laboratory results taken from PubChem BioAssay AID504333 (National Center for Advancing Translational Sciences (NCATS), 2011).
In all, about 360,000 compounds went through this assay and about 16,000 (4.4%) were called active. The shares of active, inactive and inconclusive entries below differ from those in the screen. The call rests on the fitted dose curve; in most records, active means well fitted inhibition curve with a large enough effect; inconclusive means small, poorly fitted or top-dose-only effect; inactive means no such curve, though single readings can be large or run the other way. Potencies of inconclusive entries are doubtful fits and often do not repeat.

molecular target: Bromodomain adjacent to zinc finger domain protein 2B (Homo sapiens) (UniProt Q9UIF8); experiment: qHTS Assay for Inhibitors of BAZ2B; settings: AlphaScreen BAZ2B-H3K14Ac peptide displacement; activity change, negative = inhibition: at 114 µM (top of the series) unless noted; further: nearly all actives have a fitted effect of over 60% in size
Procedure, shortened: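 AlphaScreen displacement: compounds (up to 110uM) incubated 30 min at room temperature with a preformed 50 nM BAZ2B/50 nM biotinylated H3K14Ac peptide complex in PBS pH 7.4 with Tween-20. Donor and acceptor beads at 10 ug/mL final added, 20 min light-protected before reading.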
On the % scale 0 is the no-effect control and ±100 the full control effect; potency means the concentration at half of the fitted maximal effect; tags describe the fitted curve by direction and shape.

Sequence of UniProt Q9UIF8 (Q9UIF8 whole entry, looked up, the tested form may be a part): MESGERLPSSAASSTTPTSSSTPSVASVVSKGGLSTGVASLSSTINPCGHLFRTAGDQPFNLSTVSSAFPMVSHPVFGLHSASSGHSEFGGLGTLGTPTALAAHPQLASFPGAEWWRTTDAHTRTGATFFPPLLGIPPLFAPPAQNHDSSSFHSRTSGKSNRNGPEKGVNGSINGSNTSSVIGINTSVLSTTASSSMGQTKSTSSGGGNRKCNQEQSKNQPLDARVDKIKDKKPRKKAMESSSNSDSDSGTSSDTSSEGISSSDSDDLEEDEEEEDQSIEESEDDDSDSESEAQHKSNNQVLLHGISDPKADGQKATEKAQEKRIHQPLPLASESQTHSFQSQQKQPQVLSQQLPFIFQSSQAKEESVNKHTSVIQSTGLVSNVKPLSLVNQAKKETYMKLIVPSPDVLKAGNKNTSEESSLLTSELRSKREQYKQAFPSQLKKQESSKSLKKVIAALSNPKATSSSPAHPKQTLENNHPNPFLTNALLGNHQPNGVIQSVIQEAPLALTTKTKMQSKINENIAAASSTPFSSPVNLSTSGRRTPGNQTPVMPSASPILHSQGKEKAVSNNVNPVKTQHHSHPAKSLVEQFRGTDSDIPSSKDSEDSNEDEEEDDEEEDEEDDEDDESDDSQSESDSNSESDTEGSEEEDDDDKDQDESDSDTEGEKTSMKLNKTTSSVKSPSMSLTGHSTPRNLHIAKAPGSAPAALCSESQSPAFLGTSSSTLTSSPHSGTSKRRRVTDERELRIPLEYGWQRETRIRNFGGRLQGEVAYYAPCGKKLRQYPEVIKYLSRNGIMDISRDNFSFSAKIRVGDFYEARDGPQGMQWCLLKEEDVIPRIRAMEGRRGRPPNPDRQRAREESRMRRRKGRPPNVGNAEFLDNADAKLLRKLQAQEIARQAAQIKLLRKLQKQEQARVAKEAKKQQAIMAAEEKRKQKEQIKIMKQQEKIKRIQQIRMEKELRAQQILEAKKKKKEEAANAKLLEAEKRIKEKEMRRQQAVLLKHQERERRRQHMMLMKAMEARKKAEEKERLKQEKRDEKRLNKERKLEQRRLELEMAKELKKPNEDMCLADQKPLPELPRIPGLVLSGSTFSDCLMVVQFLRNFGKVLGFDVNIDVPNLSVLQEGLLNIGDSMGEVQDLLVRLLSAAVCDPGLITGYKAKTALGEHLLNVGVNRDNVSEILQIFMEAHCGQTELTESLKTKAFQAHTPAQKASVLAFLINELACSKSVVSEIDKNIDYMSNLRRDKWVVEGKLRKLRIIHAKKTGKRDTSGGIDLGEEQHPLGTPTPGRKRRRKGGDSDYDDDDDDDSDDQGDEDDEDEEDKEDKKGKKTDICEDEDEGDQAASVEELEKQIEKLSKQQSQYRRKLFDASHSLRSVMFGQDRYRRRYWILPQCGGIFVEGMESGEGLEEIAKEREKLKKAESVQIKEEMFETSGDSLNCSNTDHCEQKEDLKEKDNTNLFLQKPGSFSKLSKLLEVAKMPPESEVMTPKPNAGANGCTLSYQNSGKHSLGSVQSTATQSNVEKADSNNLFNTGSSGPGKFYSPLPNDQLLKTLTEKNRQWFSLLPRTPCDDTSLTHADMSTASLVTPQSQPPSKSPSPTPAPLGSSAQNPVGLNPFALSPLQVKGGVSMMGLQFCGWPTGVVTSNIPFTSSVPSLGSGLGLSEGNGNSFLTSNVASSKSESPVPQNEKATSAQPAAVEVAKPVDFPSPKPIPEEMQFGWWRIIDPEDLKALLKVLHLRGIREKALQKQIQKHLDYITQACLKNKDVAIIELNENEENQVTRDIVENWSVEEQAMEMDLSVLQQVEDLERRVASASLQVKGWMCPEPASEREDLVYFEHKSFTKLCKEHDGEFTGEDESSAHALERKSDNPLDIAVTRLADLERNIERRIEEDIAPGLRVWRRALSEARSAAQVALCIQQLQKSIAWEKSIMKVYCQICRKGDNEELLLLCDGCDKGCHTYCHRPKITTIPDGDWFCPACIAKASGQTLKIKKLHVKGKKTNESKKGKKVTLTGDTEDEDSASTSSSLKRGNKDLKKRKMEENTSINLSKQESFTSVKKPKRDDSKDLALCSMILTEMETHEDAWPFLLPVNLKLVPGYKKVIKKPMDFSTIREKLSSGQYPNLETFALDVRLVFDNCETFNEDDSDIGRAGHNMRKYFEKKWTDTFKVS

| SMILES | Potency | activity change, negative = inhibition |
| --- | --- | --- |
| Cc1nn(-c2ccc(F)cc2)c(Cl)c1/C=C(\CC(=O)O)c1nc2ccccc2s1 | inconclusive: 89.1 µM [inhibitor, single point] | – |
| COc1cccc(C(=O)N2CCCC(Nc3ccc(C)c(C)c3)C2)c1 (centres undefined) | inconclusive: 44.7 µM [inhibitor, partial curve] | – |
| CC1CN(c2nc(Nc3ccccc3F)nc(N)c2[N+](=O)[O-])CC(C)O1 (centres undefined) | inconclusive: 79.4 µM [inhibitor, single point] | – |
| Cn1cc(/C=N/Nc2ccccc2)c2ccccc21 | active: 39.8 µM | – |
| NC(=O)c1ccc(NC(=O)Cc2cccs2)cc1 | inconclusive: 50.1 µM [inhibitor, partial curve] | – |
| CCOCCCNC(=O)CN1C(=O)c2c(c3ccccc3n2C)C1c1ccc(OC)cc1 (centres undefined) | inconclusive: 89.1 µM [inhibitor, single point] | – |
| Cc1ccc2nc3cc([N+](=O)[O-])cc([N+](=O)[O-])c3cc2c1 | – | inactive: -29.9% |
| C#CCOCCOCCOCCNc1nc(N2CCN(C(=O)[C@H](CCC(=O)O)n3cc(C(N)CO)nn3)CC2)nc(N2CCN(C(=O)[C@H](Cc3cc4ccccc4[nH]3)n3cc(C(N)[C@H](C)CC)nn3)CC2)n1 (some centres undefined) | active: 50.1 µM | – |
| COc1cccc(/C=C/C(=O)OC(C)C(=O)Nc2c(C)n(C)n(-c3ccccc3)c2=O)c1 (centres undefined) | – | inactive: -11.2% |
| COc1ccc(C2/C(=C(/O)c3ccc(S(=O)(=O)N4CCOCC4)cc3)C(=O)C(=O)N2CCN2CCOCC2)cc1 (centres undefined) | inconclusive: 89.1 µM [inhibitor, single point] | – |
| COc1ccc(C2NC(=O)NC(C)=C2C(=O)OCC2CCCCC2)cc1OC (centres undefined) | – | inactive: -27.9% |
| COc1cc(OC)c(OC)cc1CNC(=O)c1cc(=O)[nH]c2ccccc12 | – | inactive: 9.12% |
| Cc1ccc(-n2c(Cc3cccn3C)nnc2SCC(=O)NCc2ccc3c(c2)OCO3)cc1 | active: 50.1 µM | – |
| Cc1ccc(NC(=O)CN2C(=O)S/C(=C\c3ccc(C(=O)O)cc3)C2=O)cc1 | active: 56.2 µM | – |
| Cc1cccc(NC(=S)NCCc2c[nH]c3ccccc23)c1 | inconclusive: 89.1 µM [inhibitor, single point] | – |
| O=C(/C=C/NNC(=O)c1ccc(Cl)cc1)c1ccccc1 | inconclusive: 20 µM [inhibitor, full curve] | – |
| CCC(=O)Nc1ccc(C(=O)Nc2cccc(C)n2)cc1 | inconclusive: 28.2 µM [inhibitor, partial curve] | – |
| Cn1cccc1/C=C1\SC(=S)N(NC(=O)c2ccccc2)C1=O | active: 39.8 µM | – |
| O=C(Nc1ccccc1N1CCOCC1)c1ccccc1NS(=O)(=O)c1ccc(F)cc1 | inconclusive: 89.1 µM [inhibitor, single point] | – |
| O=C(O)CCc1ccc(-c2ccccc2)n1-c1cccc(Br)c1 | inconclusive: 50.1 µM [inhibitor, partial curve] | – |
| COc1ccc(NC(=O)CSc2nc3c(c(-c4cccs4)c2C#N)CN(C)CC3)cc1OC | inconclusive: 79.4 µM [inhibitor, single point] | – |
| CC(C)c1nc(SCC(=O)Nc2nccs2)c2ccccc2n1 | – | inactive: -35.4% |
| C/C(=N\NC(=O)C1CCCC1)c1ccc(C(C)C)cc1 | – | inactive: -4.22% |

| SMILES | Potency | activity change, negative = inhibition |
| --- | --- | --- |
| O=C(CCc1ccc(Oc2cc([N+](=O)[O-])cc([N+](=O)[O-])c2)cc1)N1CCCCCC1 | active: 25.1 µM | – |
| N=C1/C(=C/c2ccc(OCc3ccccc3F)cc2)C(=O)N=C2SC(CC(=O)N3CCOCC3)=NN12 | – | inactive: -27.9% |
| CCOC(=S)SCC(=O)Nc1nccs1 | inconclusive: 79.4 µM [inhibitor, partial curve] | – |
| COc1ccc(CN2CCN(Cc3c[nH]c4ccccc34)CC2)cc1 | active: 20 µM | – |
| Cc1c[nH]c2cccc(OCC(O)CNC(C)(C)C)c12 (centres undefined) | inconclusive: 70.8 µM [inhibitor, single point] | – |
| CCN1CCCCC(=N/O)/C(=N/O)CCCC1 | inconclusive: 89.1 µM [inhibitor, single point] | – |
| COC(=O)c1cc(OC)c(OC)cc1NC(=S)Nc1cccc(C(C)=O)c1 | – | inactive: 4.73% |
| COc1cccc(NC(=O)c2ccc(CNS(=O)(=O)c3ccc4c(c3)C(C)(C)C(=O)N4C)cc2)c1 | inconclusive: 56.2 µM [inhibitor, partial curve] | – |
| Cc1ccc(N/N=C(\C#N)C(=N)N2CCCCC2)cc1 | inconclusive: 56.2 µM [inhibitor, partial curve, poor fit] | – |
| O=C(/C=C/c1ccco1)Nc1ccc(Cl)c(-c2nc3cc(Cl)ccc3o2)c1 | – | inactive: -12.8% |
| CN1C(=O)/C(=C\c2ccncc2)SC1=Nc1ccccc1 | inconclusive: 70.8 µM [inhibitor, single point] | – |
| Cc1ccc(-c2nnc(Nc3ccc(O)cc3)c3ccccc23)cc1S(=O)(=O)NCC1CCCO1 (centres undefined) | inconclusive: 20 µM [inhibitor, full curve, poor fit] | – |
| Cc1cc2ccccc2n1-c1ccc(C(=O)N2CCC(C(=O)NCc3ccc(F)cc3)CC2)s1 | inconclusive: 79.4 µM [inhibitor, partial curve] | – |
| CC1CCCN(c2nc(N(C)c3ccccc3)nc(N)c2[N+](=O)[O-])C1 (centres undefined) | inconclusive: 44.7 µM [inhibitor, partial curve] | – |
| COC(=O)c1c(SCC(=O)Nc2ccccc2OC)[nH]c2ccccc2c1=O | – | inactive: -17.4% |
| COc1ccc(Oc2nc3c(c(=O)n(Cc4ccccc4Cl)c(=O)n3C)n2C)cc1 | inconclusive: 39.8 µM [inhibitor, partial curve, poor fit] | – |
| Cc1onc(-c2ccccc2Cl)c1C(=O)Nc1nn[nH]n1 | active: 79.4 µM | – |
| COc1ccc2[nH]c3c(c2c1)CCN1C(=O)N([C@@H](C)C(=O)NCC2CCCO2)C(=O)[C@]31C (some centres undefined) | inconclusive: 79.4 µM [inhibitor, single point] | – |
| Cc1cc2ccccc2cc(C)c1=O | inconclusive: 89.1 µM [inhibitor, single point] | – |
| O=C(C1CC1)N1CCc2cc(Br)cc(S(=O)(=O)N3CCN(c4ccccc4F)CC3)c21 | – | inactive: -3.75% |
| Cc1ccc(NC(=O)Cn2c(=O)n(CCc3ccccc3)c(=O)c3c4c(sc32)CCCC4)cc1C | – | inactive: -1.73% |
| Cc1cc(C(F)F)nn1CC(=O)NC1C(=O)N2C(C(=O)O)=C(CSc3nnnn3C)CSC12 (centres undefined) | active: 56.2 µM | – |
| COCCn1c(-c2ccc(Cl)cc2)cnc1SCC(=O)NCc1cccs1 | inconclusive: 39.8 µM [inhibitor, partial curve] | – |

| SMILES | Potency | activity change, negative = inhibition |
| --- | --- | --- |
| Cc1c(CN2CCC(CO)(CCOc3ccccc3)CC2)[nH]c2c(Cl)cccc12 | inconclusive: 39.8 µM [inhibitor, partial curve] | – |
| CCOc1ccc(NC(=O)CSc2nc(-c3cccs3)cc(C(F)(F)F)n2)c([N+](=O)[O-])c1 | inconclusive: 89.1 µM [inhibitor, single point] | – |
| COc1ccc(NC(=O)/C(Cl)=C(/Cl)S(=O)Cc2ccc(Cl)cc2)cn1 (centres undefined) | – | inactive: -15.5% |
| O=C(CCC(=O)Nc1ccc(Cl)cc1)N/N=C/c1ccc2c(c1)OCO2 | inconclusive: 89.1 µM [inhibitor, single point] | – |
| Cc1ccc(-n2cc(-c3ccccc3)c3c(N4CCOCC4)ncnc32)cc1 | inconclusive: 25.1 µM [inhibitor, full curve] | – |
| Cc1cc(=O)[nH]c(-c2ccccc2OC(F)(F)F)n1 | – | inactive: 2.25% |
| CNc1nc2c(C)cccn2c(=O)c1C=NCc1ccccc1 | inconclusive: 20 µM [inhibitor, full curve] | – |
| CN1CCCC(OC(=O)c2cccc(Cl)c2)C1 (centres undefined) | – | inactive: -8.24% |
| Cc1ccc(NC(=O)CCNS(=O)(=O)c2ccc3c(c2)CCC(=O)N3)cc1F | – | inactive: -6.65% |
| O=c1cc(O)c2ccccc2n1Cc1ccccc1F | – | inactive: -9.91% |
| Cc1c(NS(=O)(=O)c2cccc(C(=O)NCc3ccccc3)c2)c(=O)n(-c2ccccc2)n1C | inconclusive: 10 µM [inhibitor, full curve, poor fit] | – |
| O=C1CC(N2CCCc3ccccc32)C(=O)N1c1ccccc1 (centres undefined) | – | inactive: 2.91% |
| COc1cc(C(=S)N2CCCC2)ccc1OC(=O)c1ccc(Cl)cc1[N+](=O)[O-] | inconclusive: 7.08 µM [inhibitor, partial curve] | – |
| COc1ccc(OC)c(NC(=O)N2CCCC(C(=O)c3ccccc3OC)C2)c1 (centres undefined) | inconclusive: 79.4 µM [inhibitor, partial curve] | – |
| CC(C)C(=O)Nc1ccc(NC(=O)CCc2ccccc2)cn1 | inconclusive: 89.1 µM [inhibitor, single point] | – |
| c1ccc(-c2ccccc2OCCCN2CCCCC2)cc1 | inconclusive: 89.1 µM [inhibitor, single point] | – |
| COc1ccccc1N=c1scc(-c2ccc3c(c2)NC(=O)CO3)n1CC1CCCO1 (centres undefined) | active: 44.7 µM | – |
| CC1CN(C(=O)/C=C/c2ccccc2Cl)CC(C)O1 (centres undefined) | inconclusive: 89.1 µM [inhibitor, single point] | – |
| Cc1ccc(S(=O)(=O)Nc2ccc3c(c2)c(C(=O)OC(C)C)c(C)n3S(=O)(=O)c2ccc(C)cc2)cc1 | – | inactive: -18.1% |
| Cc1ccsc1C1C(C#N)=C(N)OC2=C1C(=O)CC(C)C2 (centres undefined) | inconclusive: 79.4 µM [inhibitor, single point] | – |
| COc1ccccc1N1C(=N)S/C(=C\c2ccc(-c3ccccc3C(=O)O)o2)C1=O | inconclusive: 50.1 µM [inhibitor, partial curve] | – |
| Cc1cccc2sc(NC(=O)C3CSC4(C)CCC(=O)N34)nc12 (centres undefined) | inconclusive: 79.4 µM [inhibitor, single point] | – |
| COc1cc(/C=N/Nc2nc3ccccc3[nH]2)ccc1O | inconclusive: 70.8 µM [inhibitor, single point] | – |
